According to PubChem BioAssay AID1508624 (National Center for Advancing Translational Sciences (NCATS), 2021):
In all, about 48,000 compounds went through this assay and about 120 (0.25%) were called active. About 4% were inconclusive and are not listed. Calls follow the shape of the dose curve; as a rule, active = well fitted activation curve with a large enough effect; inconclusive = small, poorly fitted or top-dose-only effect, or another doubt; inactive = no such curve, though single readings can be large or run the other way. The list shows a part of the results.

assay: Primary qHTS for Identification of Small Molecule Activators of Huntingtin-Antisense Promoter Activity; conditions: HEK293 HTT-AS promoter firefly luciferase reporter, 24 h; series mostly up to 57.5 µM; activity change, positive = activation: at the top concentration; also: nearly all actives have a fitted effect of over 55% in size
How it was run: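 Luminescence was read after Dual-Glo reagent and a 10 min room-temperature incubation. Values were normalized to vehicle (0% activity) and zero RLU (-100% activity). Reporter HEK293 cells had been exposed to compounds (up to 57.5 uM final) for 24 h.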

Activity change, positive = activation, inactive:
COc1ccccc1NC(=O)C(Cc1ccccc1)NS(=O)(=O)c1ccc2c(c1)c(=O)n(C)c(=O)n2C (centres undefined) -12.8%, CCOc1ccc(-n2c(=O)c3c4c(sc3n(CC(=O)Nc3cccc(C(F)(F)F)c3)c2=O)CCCCC4)cc1 -4.31%, O=C(NCc1ccc(F)cc1)c1c(O)nc2ccccn2c1=O -2.46%, Cc1cc(Nc2cccc(C(F)(F)F)c2)nc2ccc(NC(=O)c3ccc(=O)[nH]c3)cc12 -27.4%, CCCCOc1cccc(NC(=O)CSc2nnc(C)s2)c1 1.41%, CN(Cc1ccccc1)c1ncnc2onc(-c3ccc(F)cc3)c12 -36.4%, COc1ccc(OC)c(NC(=O)CSc2nc3ccccc3nc2N2CCCCC2)c1 -18.9%, COc1ccc(NC(=O)COc2ccc(S(=O)(=O)NC3CCCCC3)cc2)cc1OC -29.7%, O=C(Nc1ccccc1)c1ccc(Br)c(S(=O)(=O)N2CCCCC2)c1 -8.62%, CCCC(=O)OCc1cnc(C)c2oc(=O)c(C(=O)Nc3ccccc3)cc12 -11.8%, COc1ccc(NC(=O)C2CCC(CNS(=O)(=O)c3ccc(Br)s3)CC2)cc1OC (centres undefined) -30.4%, CC(NC(=O)CCNS(=O)(=O)c1cccc2nsnc12)c1ccccc1 (centres undefined) -3.07%, Cc1ccc2c(=O)cc(CSCC(=O)Nc3nnc(C)s3)[nH]c2c1 -8.29%, COc1ccc(Br)cc1C1Sc2ccccc2NC2=C1C(=O)c1ccccc12 (centres undefined) -21.2%, CCOc1cc(-c2nc(-c3ccc(Br)cc3)no2)cc(OCC)c1OCC 17%, COC(=O)[C@@H]1CC2=CC(=O)CC[C@]2(C)[C@@]23O[C@@H]2C[C@@]2(C)[C@H](CC[C@@]24CCC(=O)O4)[C@@H]13 -1.48%, COc1ccc(-c2cc(C(F)(F)F)n3nc(C(=O)NCC45CC6CC(CC(C6)C4)C5)cc3n2)cc1 -19.4%, O=C(CN1C(=O)COc2ccc(S(=O)(=O)N3CCOCC3)cc21)N1CCN(c2ccccc2)CC1 -3.04%, COCCCNC(=O)c1ccc2c(=O)n(Cc3ccc(OC)cc3)c(=O)[nH]c2c1 -9.44%, CSc1ccc2c(c1)C(N1CCN(C)CC1)Cc1ccccc1S2 (centres undefined) -21.3%, Cc1nc(-c2ccc(C)c(S(=O)(=O)N3CCC(C(=O)NCc4ccc(Cl)cc4)CC3)c2)no1 -20.7%, Cc1cccc(CSc2nc3c(c(=O)[nH]2)C(c2cccc(O)c2)CC(=O)N3)c1 (centres undefined) -28.3%, Cc1ccc(S(=O)(=O)C(CNC(=O)c2ccccc2F)c2cccs2)cc1 (centres undefined) -10%, CCOC(=O)c1c(NC(=O)c2cc(C(C)C)on2)sc(C)c1C 15.7% [at 11.5 µM, percent change from vehicle, -100% = no light], CC(C)(C)C(=O)Oc1ccc(S(=O)(=O)Nc2ccccc2C(=O)NCC(=O)O)cc1, COc1ccc(C2=C(C)C(=O)N(Cc3ccc(C(=O)NCc4ccc(C)cc4)cc3)S2(=O)=O)cc1 -4.14%, Cc1cccc(CN2CCN(CC(=O)NCc3ccc(Cl)cc3)C2=O)c1 -17.2%, COc1ccc(-n2ncc(C(=O)N3CCc4ccccc4C3)c2C2CCN(C(=O)OC(C)(C)C)CC2)cc1 2.53%, Cc1cc(C)cc(NS(=O)(=O)c2ccc3c(c2)CCCN3C(=O)C2CCC2)c1 -16%, CC(C(=O)O)c1ccc2c(c1)Cc1cccnc1O2 (centres undefined) -1.39%, Cc1oc2ncn(C)c(=O)c2c1C(=O)NCCCN1CCCC(C)C1 (centres undefined) -15.7%, C[C@H]1COc2c(C3(N)CC3)c(F)cc3c(=O)c(C(=O)O)cn1c23 -11.9%, O=C(Nc1ccc(Br)cc1F)c1ncoc1-c1ccco1 15.7%, CCCN(CCC)CCCNC(=O)c1cn(CC)c2ccc(S(=O)(=O)N3CCc4ccccc4C3)cc2c1=O -6.95%, COc1cccc(CNCCSc2nnnn2C)c1OCc1ccc(Cl)cc1 -22.9%, CN(C)CCCN1c2ccccc2Sc2ccccc21 -13.5%, CC(C)c1ccc(NC(=O)C2CCCN(S(=O)(=O)c3ccc4[nH]c(=O)ccc4c3)C2)cc1 (centres undefined) -40.1%, CCc1ccc(Cn2nnc(C(=O)Nc3ccc(C)cc3)c2N)cc1 15.6%, CCOC(=O)c1ccc2c(c1)N(CC(=O)Nc1ccc(CC)cc1)C(=O)c1ccccc1S2 2.93%, COc1cc(NC(=O)Cn2cnc3sc(C)c(S(=O)(=O)N4CCN(C)CC4)c3c2=O)cc(OC)c1OC -11%, Cc1ccc(Nc2c(-c3ccc(N4CCOCC4)cc3)nc3ncccn23)cc1C -24.9%, CCOC(=O)c1ccc(NC(=O)CC2C(=O)N(c3ccccc3)C(=O)N2C2CCCCC2)cc1 (centres undefined) -12.8%, CCOc1cccc(C(=O)Nc2ccc(NC(=O)c3ccc(Br)cc3)cc2)c1 -26.7%, CCN(c1ccc(C)cc1C)S(=O)(=O)c1nnc(NC(=O)c2ccccc2OC)s1 -37.8%, CCOC(=O)c1oc2ccc(S(=O)(=O)n3nc(-c4cc(OCC)c(OCC)c(OCC)c4)cc3N)cc2c1C -16.3%, O=C(CSc1oc(-c2ccco2)nc1S(=O)(=O)c1ccccc1)c1ccc(Cl)cc1 -14.1%, Cc1cc(C)c2oc(C(=O)Nc3c(C(=O)Nc4ccccc4)oc4ccccc34)cc(=O)c2c1 1.27%, Cn1c(SCc2ccc(F)cc2)nc2ccc(C(=O)NCc3ccccc3)cc21 -49.8%, CCCCn1cc(S(=O)(=O)c2ccc(Cl)cc2)c(=O)c2cc(F)c(N3CCCCC3)cc21 -7.46%, Cc1ccc(OCC(=O)Nc2ccc(S(=O)(=O)N(Cc3ccccc3)c3ccccc3)cc2)cc1 -61.1%, COc1ccccc1CNC(=O)c1c(O)nc2cc(C)ccn2c1=O -5.04%, Cc1nc2ccc(S(=O)(=O)NC(C(=O)NCc3ccc(Cl)cc3)C(C)C)cc2s1 (centres undefined) -11.9%, Cc1cccc(C(=O)Nc2ccccc2C(=O)OCc2cc(=O)n3nc(C4CC4)sc3n2)c1 8.68%, CCOC(=O)c1c(-c2ccc(OC)c(OC)c2)csc1NC(=O)c1ccc(F)cc1 -2.73%, COc1cccc(N2C(=O)CSC23C(=O)N(CC(=O)NCc2ccc(C)cc2)c2ccccc23)c1 (centres undefined) -5.96%, CSC1=NC2(CCN(C(=O)NC3CCCCC3)CC2)N=C1c1ccc(C(C)(C)C)cc1 -12.1%, Cc1cc(C(C)(C)C)c(O)c(C)c1CC1=NCCN1, O=C(C1CCN(c2nc3ccccc3[nH]2)CC1)N1CCN(c2cccc(Cl)c2)CC1 -20.8%, CCc1ccc2occ(CC(=O)Nc3sc4c(c3C(=O)OC)CCC4)c2c1 -23.3%
